Laboratory results as given in the supplement of paper PMC10338343.
± gives the standard deviation. Over roughly 5,500 sequences, “pre-steady-state target cleavage rate” has its median near 0.1; the highest 2% begin near 0.64. Only a part is listed here, and it is no random draw.

What follows are sequences tested on MIWI (PIWIL1) piRISC loaded with piRNA #2 (30 nt) (assay: pre-steady-state target cleavage rate (min^-1); MIWI and MILI are mouse PIWI proteins and EfPiwi is from a freshwater sponge; tags in brackets are library labels; higher = faster piRNA-guided slicing of the target). Settings: guide: piRNA #2 5'p-UUAGGUAACCCAGUAGAUCCAGAGGAAUUC; auxiliary factor: 500 nM mouse GTSF1.
In short: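 The pre-steady-state cleavage rate was obtained by Cleave-'n-Seq with a burst-and-steady-state fit. A transcribed, DNA-blocked target RNA library (0.1 nM) was mixed with 1 nM active affinity-purified piRISC carrying one synthetic guide, with or without 500 nM GTSF1 partner protein, in HEPES–potassium acetate buffer at 33 °C for 0–8 or 0–960 min. Uncleaved targets were sequenced and normalised to depth and to weakly complementary targets, with three trials pooled and k3 capped at 0.0001 min^-1.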

| Sequence | pre-steady-state target cleavage rate |
| --- | --- |
| CUUAAGCUCUGGAUCUACUGGGUUUCGUAA | 0.0853 ± 0.012 |
| CUUAAGGUCUGGAUCUACUGGGUUACCCAA | 0.0201 ± 0.0072 |
| CUUAAGCUCUGGAUGAUCUGGGUUACCUAA | 0.00889 ± 0.0027 |
| GAAUUCCUCAGGAUCUACUGGGAUACCUAA | 0.28 ± 0.058 |
| CUUUUCCACUGGAACUACUGGGUUACCUAA | 0.288 ± 0.03 |
| CUUUUCCUCUGGAUGUACAGGGUUACCUAA | 0.427 ± 0.026 |
| CAAUACCUCUGCAUCUACUGGGUUACCUAA | 0.412 ± 0.039 |
| CUUAAGGAGAGGAUUCUACUGGGUUACCUAA | 0.00445 ± 0.0033 |
| CUAUUCCUGUGGAUCUACUGGGUUACCAAA | 0.233 ± 0.041 |
| CAAUUCCUCUGGAACUACUGGGUUUCCUAA | 0.348 ± 0.1 |
| CUUAUCCUCUGGAUCUACUCGGUAACCUAA | 0.0145 ± 0.011 |
| CUAAUCCUCUGGAUCUACUGGGUUACCUUA | 0.396 ± 0.069 |
| CUUAUCCUCUGGAUCUUCUGCGUUACCUAA | 0.231 ± 0.037 |
| GAAUUCCUCUCGAUCAACUGGGUUACCUAA | 0.63 ± 0.051 |
| CUUAACCUCUGGAUCUACUGGGGUACCUAA | 0.0617 ± 0.014 |
| GAAUUCCUCUGGAUCUACACCGUUACCUAA | 0.0862 ± 0.0079 |
| CUAUACCUCUGGAUCUAGUGGGUUACCUAA | 0.225 ± 0.043 |
| CUUUUCCUCUGGAUCUACUGGGUUUCCAAA | 0.151 ± 0.046 |
| CUAUUCCUCUGGGUCUACUGGGUUACCUAA | 0.376 ± 0.029 |
| CAAUUCCUCUGGACUCUACUGGGUUACCUAA | 0.317 ± 0.053 |
| CUUAUGCUCUGCAUCUACUGGGUUACCUAA | 0.366 ± 0.063 |
| CUUAAGCUCUGGAUCUACUGGGCUACCUAA | 0.0738 ± 0.01 |
| CAAUUGCUCUGGAUCUACUCGGUUACCUAA | 0.0591 ± 0.016 |

| Sequence | pre-steady-state target cleavage rate |
| --- | --- |
| CUUAAGGAGAGGAUCUACUGGGUUACCUAG [g2:g20:cont:t1G] | 0.0105 ± 0.0044 |
| CUUAAGGUCUGGAUCUACUGAGUUACCUAA | 0.467 ± 0.063 |
| CUUAAGGAGACCUAGAUCAGCGUUACCUAA | 0.00423 ± 0.0029 |
| CUUAAGGAGUGGAUGUACUGGCUUACCUAA | 0.0127 ± 0.012 |
| CUUAACCAGAGGAUCUACUGGGUUACCUAA | 0.0384 ± 0.0072 |
| CUUAAGGAGUGGAUCUACUGGGUAACCUAA | 0.0147 ± 0.009 |
| CUUAACGUCUGCAUCUACUGGGUUACCUAA | 0.315 ± 0.027 |
| GAAAAGCUCUGGAUCUACUGGGUUACCUAA | 0.0282 ± 0.012 |
| CUUAUCCUCUGGGUCUACUGGGUUACCUAA | 0.411 ± 0.037 |
| CAAUUCCUCUGGAUCUUCUGGGUAACCUAA | 0.0887 ± 0.02 |
| CUUAAGCUCAGGUUCUACUGGGUUACCUAA | 0.249 ± 0.027 |
| CUUUUCCUCUGCAUCUAGUGGGUUACCUAA | 0.155 ± 0.017 |
| CUAUUCCUCUGCAACUACUGGGUUACCUAA | 0.473 ± 0.045 |
| CUUUUCCUCUGGAUCUACUGGGUUACCCUAA | 0.24 ± 0.063 |
| CAAAUCCUCUGGAUCUACAGGGUUACCUAA | 0.246 ± 0.027 |
| CAAUUCCUCUGGAUCUACUAGGUUACCUAA | 0.337 ± 0.055 |
| CUUAAGGUCUGCAUCUACUGGGUUACCAAA | 0.0687 ± 0.019 |
| CUUAUCCUCUGGAUCAACUGGGUUACGUAA | 0.506 ± 0.038 |
| CUUAAGGUCUGGAUCUACGGGUUACCUAA | 0.00716 ± 0.0023 |
| CUUAUCCUCUGGUUCUACUGGGUUACCUAA | 0.607 ± 0.047 |
| CUAUUCCUCUGGAUCUACUGGCUUUCCUAA | 0.0617 ± 0.017 |
| CUAUUCCUCUGGAACUACUGGGUUAGCUAA | 0.3 ± 0.04 |
| GAAUUCCUCUGGAUCUACUGCGUAACCUAA | 0.226 ± 0.056 |

| Sequence | pre-steady-state target cleavage rate |
| --- | --- |
| GAAUUCCUCUGGAUCUACUGGGUUAGCAAA | 0.238 ± 0.048 |
| CUUAAGCUCUGGAGUCUACUGGGUUACCUAA | 0.1 ± 0.011 |
| GAAUUCCUCUGGAUCUACUGGCUUACCUUA | 0.073 ± 0.024 |
| GAAUUCCACUGGAUCUACUCGGUUACCUAA | 0.193 ± 0.022 |
| CUUAAGGACUGGAUCUACUGGGUGACCUAA | 0.063 ± 0.041 |
| CUUAUCCUCUGGAUCUUCUGGGUUAGCUAA | 0.0958 ± 0.024 |
| CUUAUCCUACUGGAUCUACUGGGUUACCUAA | 0.528 ± 0.065 |
| CUUUUCCUCUGGAACUACUGGGUUUCCUAA | 0.185 ± 0.06 |
| CUUAUCCUCUGGAUCAACUGGGUUACCAAA | 0.294 ± 0.041 |
| CUUUUCGCUCUGGAUCUACUGGGUUACCUAA | 0.132 ± 0.022 |
| CAUAUUCCUCUGGAUCUACUGGGUUACCUAA | 0.364 ± 0.053 |
| GAAUUCGUCUGCAUCUACUGGGUUACCUAA | 0.568 ± 0.052 |
| CUUUUCGUCUGGAUCAACUGGGUUACCUAA | 0.159 ± 0.026 |
| CUUAAGCUCUGGAUGUAGUGGGUUACCUAA | 0.0588 ± 0.013 |
| GAAUUCCUCUGGAUCUUCUGGGUAACCUAA | 0.0767 ± 0.017 |
| CUUUACCUCUGGAUCUACUGGCUUACCUAA | 0.083 ± 0.01 |
| CUUAAGGAGACCAUCUACACCGUUACCUAA | 0.00422 ± 0.0031 |
| CUAUUCCUCUGGAUCUACAGGGAUACCUAA | 0.162 ± 0.02 |
| CUUAAGGUCUGGAUCUAGUGGGAUACCUAA | 0.0293 ± 0.011 |
| CAAUUCCUCUGGAGCUACUGGGUUACCUAA | 0.508 ± 0.04 |
| CUUAUCCUCUGGAACUACUGGGAUACCUAA | 0.0808 ± 0.015 |
| CUAUUCCUCUGGAUCUACAGGGUUACCAAA | 0.217 ± 0.027 |
| CUUAAGCCCUGGAUCUACUGGGUUACCUAA | 0.315 ± 0.027 |

| Sequence | pre-steady-state target cleavage rate |
| --- | --- |
| GAAUUCCUCUGGAUCUACUGGGCUUACCUAA | 0.119 ± 0.028 |
| CUUUUCCUCUGGAUCUUCUCGGUUACCUAA | 0.0576 ± 0.0087 |
| CUUAAGGUCUGGAUCUACUGCCUUACCUAA | 0.0229 ± 0.0068 |
| CUUAAGGACUGGAUCUGCUGGGUUACCUAA | 0.132 ± 0.049 |
| CUUAACCUCUGGAUGUACAGGGUUACCUAA | 0.366 ± 0.021 |
| CUUAUCCUCUGGAUCUACAGGGAUACCUAA | 0.22 ± 0.031 |
| CUUAUCCUCUGGAUCUACUGGGUUGCCUAA | 0.438 ± 0.043 |
| GAAUUCCUCUGGAUGUACUGGGUAACCUAA | 0.122 ± 0.025 |
| CAAUUCCUCUGGUUCUACUGCGUUACCUAA | 0.481 ± 0.042 |
| CUUAAGGACUGGAUCUAGUGGGUUACCAAA | 0.0135 ± 0.0075 |
| CUUUUCCUCAGGAUCUACUGGGUAACCUAA | 0.191 ± 0.032 |
| CUUAAGCUCUGGAUGUACAGGGUUACCUAA | 0.208 ± 0.014 |
| CUUAAGCUCUGGAUCUACUGGGUUAGGUAA | 0.0698 ± 0.015 |
| CUUAAGGACUCGAUCUACUGGGUUACCUAA | 0.0415 ± 0.017 |
| CUAUUCCUCUGGAUCUACUGGGAUACCAAA | 0.152 ± 0.042 |
| CUUAAGCUCUGGAUCAACUGGGUUACGUAA | 0.282 ± 0.035 |
| CUUAUCCACUCGAUCUACUGGGUUACCUAA | 0.441 ± 0.028 |
| CAAUUCGUCUGGAUCUACUGGGAUACCUAA | 0.372 ± 0.053 |
| CAAUUCCUCUCGAUCUAGUGGGUUACCUAA | 0.408 ± 0.027 |
| CUUAACCUCUGGAUGUACUGGGUAACCUAA | 0.112 ± 0.02 |
| GAAUUCCUCUGGGUCUACUGGGUUACCUAA | 0.308 ± 0.042 |
| GAAGUCCUCUGGAUCUACUGGGUUACCUAA | 0.0909 ± 0.029 |
| CUUAAGCUCUGGAUCUAGAGGGUUACCUAA | 0.0118 ± 0.0039 |
